# Measurements as given in PMC4336329 (PLoS ONE, 2015).
# Screen size: about 310,000 compounds; about 2,200 (0.71%) showed an effect of 50% or more. Effects have a minus sign here. Some of the results follow.
# Target: human ether-à-go-go-related gene (hERG) potassium channel (human, UniProt Q12809)
# Assay: primary screen, population patch clamp on CHO cells stably expressing hERG
# Chain of human ether-à-go-go-related gene (hERG) potassium channel (Q12809 whole entry, looked up): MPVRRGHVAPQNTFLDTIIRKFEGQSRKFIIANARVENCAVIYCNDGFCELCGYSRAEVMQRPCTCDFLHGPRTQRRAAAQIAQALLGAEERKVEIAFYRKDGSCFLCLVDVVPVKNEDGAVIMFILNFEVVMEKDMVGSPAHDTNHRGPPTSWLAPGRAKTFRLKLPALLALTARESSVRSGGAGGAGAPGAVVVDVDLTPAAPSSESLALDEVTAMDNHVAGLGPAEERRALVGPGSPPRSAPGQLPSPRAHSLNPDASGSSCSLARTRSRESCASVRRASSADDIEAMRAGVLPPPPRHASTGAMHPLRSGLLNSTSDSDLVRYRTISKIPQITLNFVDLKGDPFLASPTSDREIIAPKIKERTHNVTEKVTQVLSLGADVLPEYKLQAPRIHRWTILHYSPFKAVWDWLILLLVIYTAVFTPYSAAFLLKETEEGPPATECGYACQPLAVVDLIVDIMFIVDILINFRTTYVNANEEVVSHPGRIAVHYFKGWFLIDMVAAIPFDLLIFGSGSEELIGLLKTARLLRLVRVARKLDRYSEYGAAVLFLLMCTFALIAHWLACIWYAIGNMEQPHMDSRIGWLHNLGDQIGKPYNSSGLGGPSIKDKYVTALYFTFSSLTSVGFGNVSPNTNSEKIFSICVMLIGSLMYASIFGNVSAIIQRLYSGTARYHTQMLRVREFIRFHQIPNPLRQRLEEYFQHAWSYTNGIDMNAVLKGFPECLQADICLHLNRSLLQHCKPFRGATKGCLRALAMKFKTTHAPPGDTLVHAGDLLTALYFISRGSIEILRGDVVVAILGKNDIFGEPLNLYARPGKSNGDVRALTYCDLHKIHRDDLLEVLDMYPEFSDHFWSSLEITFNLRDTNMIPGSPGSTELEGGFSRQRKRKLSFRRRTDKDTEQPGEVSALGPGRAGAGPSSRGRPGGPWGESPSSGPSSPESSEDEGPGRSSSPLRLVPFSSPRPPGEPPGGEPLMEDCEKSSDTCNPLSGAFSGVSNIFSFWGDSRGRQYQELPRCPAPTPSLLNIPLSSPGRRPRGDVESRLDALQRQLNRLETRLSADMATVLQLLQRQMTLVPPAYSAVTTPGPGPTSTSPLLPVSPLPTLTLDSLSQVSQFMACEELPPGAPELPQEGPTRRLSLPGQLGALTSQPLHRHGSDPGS
row,Compound,"hERG current change (%, negative = inhibition) at 1uM"
1,CCOc1ccc2nc(SCC(=O)Nc3ccc4c(c3)OCCO4)[nH]c2c1,14%
2,COC(=O)C1=C(C)N(Cc2ccccc2)C(=O)N[C@H]1c1ccc(Br)cc1,2.38%
3,COc1ccc(Nc2ccc(N3C(=O)CCC3=O)cc2[N+](=O)[O-])cn1,-2.97%
4,Cc1ccc(C)c(NC(=O)C2CCN(C(=O)c3cccs3)CC2)c1,10.3%
5,COc1ccc(NC(=O)CSc2nnc(C)s2)cc1S(=O)(=O)N1CCOCC1,2.92%
6,COc1ccccc1CN1CC(C(=O)NCCN2CCOC2=O)CCC1=O (stereo not drawn),9.66%
7,COc1ccc(CC(=O)OCC(=O)Nc2ccc(OC(F)F)cc2)cc1OC,-2.69%
8,COc1ccc(CC(=O)NNC(=O)c2ccc(Br)o2)cc1,-1.87%
9,CCN(CC)c1c([N+](=O)[O-])c(=O)sc2ccccc12,10.8%
10,Cc1ccc(S(=O)(=O)N2CC=C(C(=O)NC3CC3)CC2)cc1,7.92%
11,CCOC(=O)C1C(=O)CC(O)(c2ccccc2)CC1c1ccccc1 (stereo not drawn),5.47%
12,O=C(Cn1nc(-c2ccccc2)ccc1=O)NCCN1CCN(c2cccc(Cl)c2)CC1,6.09%
13,Cn1c(CCNC(=O)c2ccco2)nc2cc(NC(=O)c3ccccc3Cl)ccc21,11.5%
14,CCCCOc1ccc(-c2c(C#N)c(N)nc(SCC(N)=O)c2C#N)cc1,2.33%
15,CN(C)c1ccc(CN2CCCC(O)C2)cc1 (stereo not drawn),12.8%
16,O=C(Nc1ccc2c(c1)OCCO2)NC12CC3CC(CC(C3)C1)C2,16.9%
17,Cc1nc(Nc2ccc3c(c2)OCO3)c2oc3ccccc3c2n1,7.66%
18,C/C(Cn1cnc([N+](=O)[O-])n1)=N\NC(=O)c1cccc(F)c1,7.2%
19,CCc1cccc(NC(=O)c2ccc(Cn3nc(C)cc3C)o2)c1,-4.64%
20,Cc1ccc(NC(=S)Nc2ccc(OC(F)F)c(Cl)c2)cc1Cl,12.6%
21,O=C(Cn1nc(C(F)(F)F)c2c1CCC2)N1CCN(c2ccccc2)CC1,-1.5%
22,Cc1ccc(C)n1-c1nn(S(=O)(=O)c2cccc(C(F)(F)F)c2)c2cccc(F)c12,-11.3%

row,Compound,"hERG current change (%, negative = inhibition) at 1uM"
1,COc1cc(NC(=O)CN(C)S(=O)(=O)c2ccc(C)cc2)cc(OC)c1,4.72%
2,C#C[C@]1(OC(C)=O)CCC2C3CCC4=CC(=O)CC[C@@H]4C3CC[C@@]21C (stereo partly drawn),9.24%
3,CCN1CCn2c3c(c4cc(Cl)ccc42)CCCC31.Cl (stereo not drawn),-5.19%
4,CC(/C=N\N1CCN(Cc2ccc(C)cc2)CC1)=C\c1ccccc1,14%
5,CCOc1ccc(NC(=S)N(CCc2c(C)[nH]c3ccccc23)Cc2cccnc2)cc1,-4.48%
6,CCN=C1S/C(=C\c2cc(OCC)c(O)cc2Br)C(=O)N1CC,9.89%
7,Cc1ccc(CNn2cn[nH]c2=S)cc1,4.25%
8,CCc1ccc(OCC(O)CN2CCN(c3ccccc3)CC2)cc1.Cl (stereo not drawn),-23%
9,CCc1cccc(C)c1NC(=O)COC(=O)Cn1c(C)csc1=O,14.1%
10,CCOC(=O)c1[nH]n(-c2ccc(Cl)cc2)c(=O)c1C,0.0081%
11,CC(=O)C1=C(c2ccccc2)NC(=O)NC1c1cccs1 (stereo not drawn),17.9%
12,Cc1c(N2C(=O)/C(=C/c3cccc4ccccc34)SC2=S)c(=O)n(-c2ccccc2)n1C,7.42%
13,Fc1ccc(/C=C/c2nnc(-c3cccs3)o2)cc1,15.8%
14,COc1ccccc1N(C)S(=O)(=O)c1ccc(C(=O)OCC(=O)c2c[nH]c3ccccc23)cc1,19.9%
15,Cc1ccc(NS(=O)(=O)c2ccc3[nH]c(=O)sc3c2)cc1,12.9%
16,COc1ccccc1N(CCC#N)C(=O)CSc1nc(-c2ccccc2)cn1N,7.72%
17,CC(=O)Nc1ccc(S(=O)(=O)NC(C(=O)O)C2=CCC=CC2)cc1 (stereo not drawn),15.9%
18,CC1=NN2C(=N)/C(=C\c3cc(C)n(-c4cccc(C)c4)c3C)C(=O)N=C2S1,12%
19,Fc1ccc(CNCCC(Cc2ccccc2)c2ccco2)cc1 (stereo not drawn),-4.42%
20,O=C(COC(=O)/C=C/c1cccs1)Nc1ccc(F)cc1,3.94%
21,CC(=O)Oc1ccc(C(=O)Nc2ccc(S(=O)(=O)NCC3CCCO3)cc2)cc1 (stereo not drawn),13.6%
22,N#Cc1c(N2CCN(C(=O)c3ccccc3Cl)CC2)nc(-c2ccccc2)c2c1CCCC2,17.8%

row,Compound,"hERG current change (%, negative = inhibition) at 1uM"
1,CCC(C)NC(=O)CC(NS(=O)(=O)c1ccc(NC(C)=O)cc1)C(C)C (stereo not drawn),14.2%
2,CCCS(=O)(=O)N1CCN(Cc2c[nH]c3ccccc23)CC1.O=C(O)C(=O)O,-3.9%
3,O=c1[nH]cnc2scc(-c3ccsc3)c12,2.11%
4,COc1ccc(/C=C/C(=O)NCCOc2ccccc2OC)cc1,18.5%
5,CCCn1nnnc1SCC(=O)N(C(C)C)C(C)C,1.69%
6,Cc1c(C)c2ccc(OCC(=O)N3CCN(c4ccc(F)cc4)CC3)c(C)c2oc1=O,15.5%
7,Cc1cc2nc(CCN(C(=S)NCC3CCCO3)C3CCCC3)[nH]c2cc1C (stereo not drawn),-7.89%
8,c1ccc(SCc2nc(-c3cccnc3)no2)cc1,10.3%
9,O=C(COc1cc2oc(=O)c3c(c2cc1Cl)CCC3)Nc1cccnc1,14%
10,COc1ccc(/C=N/n2cnc3c([nH]c4ccc(C)cc43)c2=O)cc1CN1CCCC1,-12.7%
11,CCN(CC)S(=O)(=O)c1cccc(C(=O)N/N=C/c2cccc(O)c2O)c1,10.2%
12,COc1ccc(-c2ccnc(-c3ccc(OCCCF)cc3)n2)cc1,4.03%
13,Nc1ccc(C(=O)N2CCN(S(=O)(=O)c3ccc4c(c3)OCCCO4)CC2)cc1[N+](=O)[O-],5.54%
14,COc1ccc(N(CC(=O)N2CCC(Cc3ccccc3)CC2)S(C)(=O)=O)cc1,4.91%
15,COc1cccc(/C=C/C(=O)OCC(=O)N2c3ccccc3NC(=O)C2(C)C)c1,-4.44%
16,Cc1c(CCO)c(=O)[nH]n1S(=O)(=O)c1ccc([N+](=O)[O-])cc1,10.2%
17,Nc1c(C(=O)c2ccccc2O)cnn1-c1ccc(S(=O)(=O)N2CCOCC2)cc1[N+](=O)[O-],14.4%
18,Cc1ccc(C2(C)NC(=O)N(CC(=O)Nc3ccc4[nH]c(=O)[nH]c4c3)C2=O)cc1 (stereo not drawn),-0.309%
19,CCC1CCC2(CC1)NC(CO)(CO)CO2 (stereo not drawn),7.62%
20,COc1ccccc1Nc1nnc(SC(C)C(=O)NC2CC2)s1 (stereo not drawn),-9.37%
21,CC(=O)N1CCc2cc(S(=O)(=O)NCCC(=O)NC3CCN(Cc4ccccc4)CC3)ccc21,14%
22,Cc1cc(C)c(S(=O)(=O)n2cnc3ccccc32)c(C)c1,14%

row,Compound,"hERG current change (%, negative = inhibition) at 1uM"
1,CCc1ccc(C(=O)/C=C2\Sc3ccccc3NC2=O)cc1,4.81%
2,COc1cccc(C(=O)Nc2nnc(-c3ccc(Cl)cc3)o2)c1,8.97%
3,Cc1cccc2sc(N(CCCN(C)C)C(=O)COc3ccc(Cl)cc3)nc12.Cl,-6.98%
4,O=C(COC(=O)Cc1ccc(Cl)cc1Cl)NCCC1=CCCCC1,13.5%
5,COc1ccc(C2C(C(=O)N3CCCC3)CC(=O)N2c2ccc(OC)cc2)cc1 (stereo not drawn),9.52%
6,N/C(=N\OC(=O)Cc1cccs1)c1ccccc1,2.58%
7,Cc1occc1C(=O)NC(C)C(C)(C)C (stereo not drawn),8.65%
8,CNC(=O)/C(C#N)=C/c1c(N2CCCCCC2)nc2c(C)cccn2c1=O,-1.77%
9,O=C(NC1CCCCC1)C(c1cccnc1)N(C(=O)c1csnn1)c1ccccc1 (stereo not drawn),6.97%
10,O=C(NNS(=O)(=O)c1ccc2ccccc2c1)c1cccnc1,9.55%
11,O=C(OCCOc1ccc(F)cc1)c1ccc(S(=O)(=O)N2CCCC2)cc1,7.61%
12,O=C(Nc1cccc(S(=O)(=O)N2CCOCC2)c1)c1cc([N+](=O)[O-])ccc1N1CCOCC1,7.57%
13,Cc1cc(NC(=O)CSc2ncccc2C(=O)O)no1,9.54%
14,C/C(=N\OCC(=O)NC(C)C)c1cccs1,4.61%
15,CCOc1ccccc1NC(=O)CSc1nc2ccccc2nc1N1CCOCC1,-2.06%
16,COc1ccc(-n2nc3c(c2NC(=O)C24CC5CC(CC(C5)C2)C4)CS(=O)C3)cc1 (stereo not drawn),1.18%
17,Cc1cc(NC(=O)CCC(=O)N(CC(=O)NCC2CCCO2)c2ccc(F)c(Cl)c2)no1 (stereo not drawn),13.7%
18,COc1ccc(N(CCC#N)C(=O)/C(C#N)=C/c2cccs2)cc1,5.8%
19,Cc1cc(=O)oc2cc(OC(C)C(=O)N3CCCc4ccccc43)ccc12 (stereo not drawn),-2.5%
20,O=C(NCc1nnc(SCc2ccc(F)cc2)n1-c1ccccc1)C12CC3CC(CC(C3)C1)C2,9.54%
21,Cc1ccc(NC(=O)CN(C)C(=O)/C=C/c2cccs2)cc1,-6.26%
